# Assay results as given in the supplement of paper PMC10037445.
# The full ranking holds about 2,900 compounds; the median of “NF-kB SEAP reporter activity, fold change vs agonist alone” is about 0.99, and the highest 2% start at about 2.6. The list shows a part of the results.
# Experiments:
# RAW-Dual [1] = test: NF-kB SEAP reporter activity, fold change vs agonist alone; cytotoxicity flag (confluency mask): not cytotoxic; higher = enhanced NF-kB activity
# Summary of the method: (§1)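 After 50 nL of library stock was delivered by pin tool to RAW-Dual macrophages (50,000 cells/well, DMEM, 384-well plates), a PRR agonist was added 1 h later and the plates were kept at 37 °C, 5% CO2. Twenty hours later, IRF was read from supernatant by QuantiLuc luminescence and NF-κB by QuantiBlue absorbance at 620 nm. Reporter activity is stated as fold change over agonist-alone wells. Wells with IncuCyte confluency under 70% of agonist controls in both mask sets were counted as cytotoxic.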
# RAW-Dual [2] = test: NF-kB SEAP reporter activity, fold change vs agonist alone; cytotoxicity flag (confluency mask): cytotoxic (confluency <70% of control); higher = enhanced NF-kB activity
# Summary of the method: as §1
# RAW-Dual [3] = test: NF-kB SEAP reporter activity, fold change vs agonist alone; higher = enhanced NF-kB activity
# Summary of the method: as §1
# [4] = agonist: ODN 1826 (TLR9) 0.5 ug/mL
# [5] = agonist: Pam2CSK4 (TLR2/6) 0.1 ug/mL
# [6] = agonist: Pam3CSK4 (TLR2/1) 0.1 ug/mL
# [7] = library stock concentration (final ~1000-fold dilution): 10 mM, cytotoxicity flag (confluency mask): not cytotoxic, agonist: Imiquimod (TLR7) […]
# [8] = library stock concentration (final ~1000-fold dilution): 10 mM, cytotoxicity flag (confluency mask): not cytotoxic, agonist: MPLA (TLR4) […]
compound,measurement,setting,value
COC(=O)c1ccc2c(c1)nc(NC(=O)c1ccccc1)n2CCCc1ccccc1 (library stock concentration (final ~1000-fold dilution): 10 mM),NF-kB SEAP reporter activity,RAW-Dual [1]; agonist: LPS (TLR4) 0.1 ug/mL,0.363
same,NF-kB SEAP reporter activity,RAW-Dual [1]; [4],0.729
same,NF-kB SEAP reporter activity,RAW-Dual [1]; [5],0.316
same,NF-kB SEAP reporter activity,RAW-Dual [1]; [6],0.431
CN1CCN(Cc2ccc(Nc3ncc(Cl)c(Nc4ccccc4S(=O)(=O)N(C)C)n3)cc2)CC1 (library stock concentration (final ~1000-fold dilution): 2 mM),NF-kB SEAP reporter activity,RAW-Dual [2]; agonist: LPS (TLR4) 0.1 ug/mL,0.331
same,NF-kB SEAP reporter activity,RAW-Dual [2]; [4],1.3
same,NF-kB SEAP reporter activity,RAW-Dual [2]; [5],0.245
same,NF-kB SEAP reporter activity,RAW-Dual [2]; [6],1.08
CN1CCN(Cc2ccc(Nc3ncc(Cl)c(Nc4ccccc4S(=O)(=O)N(C)C)n3)cc2)CC1,NF-kB SEAP reporter activity,"RAW-Dual [3]; library stock concentration (final ~1000-fold dilution): 2 mM, cytotoxicity flag (confluency mask): cytotoxic (confluency <70% of control), agonist: Imiquimod (TLR7) […]",1.37
same,NF-kB SEAP reporter activity,"RAW-Dual [3]; library stock concentration (final ~1000-fold dilution): 2 mM, cytotoxicity flag (confluency mask): cytotoxic (confluency <70% of control), agonist: MPLA (TLR4) […]",0.961
c1ccc(NCc2ccc(CNc3ccccn3)cc2)nc1,NF-kB SEAP reporter activity,RAW-Dual [3]; [7],0.948
same,NF-kB SEAP reporter activity,RAW-Dual [3]; [8],1.03
c1ccc(NCc2ccc(CNc3ccccn3)cc2)nc1 (library stock concentration (final ~1000-fold dilution): 10 mM),NF-kB SEAP reporter activity,RAW-Dual [1]; agonist: LPS (TLR4) 0.1 ug/mL,1.38
same,NF-kB SEAP reporter activity,RAW-Dual [1]; [4],0.808
same,NF-kB SEAP reporter activity,RAW-Dual [1]; [5],1.13
same,NF-kB SEAP reporter activity,RAW-Dual [1]; [6],1.22
O=C(NC(C1CC1)C(F)(F)F)c1cc(-c2cnn3cc(-c4ccc(F)cc4)cnc23)cs1 (configuration not stated),NF-kB SEAP reporter activity,RAW-Dual [3]; [7],1.28
same,NF-kB SEAP reporter activity,RAW-Dual [3]; [8],1.98
O=C(NC(C1CC1)C(F)(F)F)c1cc(-c2cnn3cc(-c4ccc(F)cc4)cnc23)cs1 (configuration not stated) (library stock concentration (final ~1000-fold dilution): 10 mM),NF-kB SEAP reporter activity,RAW-Dual [1]; agonist: LPS (TLR4) 0.1 ug/mL,2.68
same,NF-kB SEAP reporter activity,RAW-Dual [1]; [4],1.73
same,NF-kB SEAP reporter activity,RAW-Dual [1]; [5],2.46
same,NF-kB SEAP reporter activity,RAW-Dual [1]; [6],3.14
COc1c2occc2cc2ccc(=O)oc12,NF-kB SEAP reporter activity,RAW-Dual [3]; [7],0.971
same,NF-kB SEAP reporter activity,RAW-Dual [3]; [8],1.16
COc1c2occc2cc2ccc(=O)oc12 (library stock concentration (final ~1000-fold dilution): 10 mM),NF-kB SEAP reporter activity,RAW-Dual [1]; agonist: LPS (TLR4) 0.1 ug/mL,0.948
same,NF-kB SEAP reporter activity,RAW-Dual [1]; [4],1.17
same,NF-kB SEAP reporter activity,RAW-Dual [1]; [5],1.12
same,NF-kB SEAP reporter activity,RAW-Dual [1]; [6],1.19
CC(C)CC(N)=O,NF-kB SEAP reporter activity,RAW-Dual [3]; [7],1.02
same,NF-kB SEAP reporter activity,RAW-Dual [3]; [8],0.978
CC(C)CC(N)=O (library stock concentration (final ~1000-fold dilution): 10 mM),NF-kB SEAP reporter activity,RAW-Dual [1]; agonist: LPS (TLR4) 0.1 ug/mL,1.02
same,NF-kB SEAP reporter activity,RAW-Dual [1]; [4],1.03
same,NF-kB SEAP reporter activity,RAW-Dual [1]; [5],1.11
same,NF-kB SEAP reporter activity,RAW-Dual [1]; [6],1.1
CN(C)C(=O)Nc1cccc(-c2ccc(N(C)C)cc2)c1 (library stock concentration (final ~1000-fold dilution): 10 mM),NF-kB SEAP reporter activity,RAW-Dual [1]; agonist: LPS (TLR4) 0.1 ug/mL,1.52
same,NF-kB SEAP reporter activity,RAW-Dual [1]; [4],1.08
same,NF-kB SEAP reporter activity,RAW-Dual [1]; [5],0.914
same,NF-kB SEAP reporter activity,RAW-Dual [1]; [6],1.01
CN(C)C(=O)Nc1cccc(-c2ccc(N(C)C)cc2)c1,NF-kB SEAP reporter activity,RAW-Dual [3]; [7],0.998
same,NF-kB SEAP reporter activity,RAW-Dual [3]; [8],0.985
O=C(c1ccc(Oc2ccccc2)cc1Cl)c1c[nH]c2ncnc(NC3CCC(CO)OC3)c12 (configuration not stated),NF-kB SEAP reporter activity,"RAW-Dual [3]; library stock concentration (final ~1000-fold dilution): 10 mM, cytotoxicity flag (confluency mask): cytotoxic (confluency <70% of control), agonist: Imiquimod (TLR7) […]",0.133
same,NF-kB SEAP reporter activity,"RAW-Dual [3]; library stock concentration (final ~1000-fold dilution): 10 mM, cytotoxicity flag (confluency mask): cytotoxic (confluency <70% of control), agonist: MPLA (TLR4) […]",0.252
O=C(c1ccc(Oc2ccccc2)cc1Cl)c1c[nH]c2ncnc(NC3CCC(CO)OC3)c12 (configuration not stated) (library stock concentration (final ~1000-fold dilution): 10 mM),NF-kB SEAP reporter activity,RAW-Dual [2]; agonist: LPS (TLR4) 0.1 ug/mL,0.431
same,NF-kB SEAP reporter activity,RAW-Dual [2]; [4],0.161
same,NF-kB SEAP reporter activity,RAW-Dual [2]; [5],0.293
same,NF-kB SEAP reporter activity,RAW-Dual [2]; [6],0.129
C=CC(=O)N1CCC(CNc2ncnc(N)c2-c2ccc(Oc3ccccc3)cc2)CC1 (library stock concentration (final ~1000-fold dilution): 10 mM),NF-kB SEAP reporter activity,RAW-Dual [1]; agonist: LPS (TLR4) 0.1 ug/mL,0.782
same,NF-kB SEAP reporter activity,RAW-Dual [1]; [4],0.734
same,NF-kB SEAP reporter activity,RAW-Dual [1]; [5],0.549
same,NF-kB SEAP reporter activity,RAW-Dual [1]; [6],0.601
C=CC(=O)N1CCC(CNc2ncnc(N)c2-c2ccc(Oc3ccccc3)cc2)CC1,NF-kB SEAP reporter activity,RAW-Dual [3]; [7],0.888
same,NF-kB SEAP reporter activity,RAW-Dual [3]; [8],0.827
